Experimental data from the RNAGym collection of RNA variant scans (doi:10.7554/elife.90254).
The source gives no read counts; variants with many changes may rest on few reads.

B1: LINE1-mini (parent)
chain: GGCAGAGCUCAACACAGCGUGGCAAAGUGGCUGUGGCUAGACUGCC

Variants of: B1
Assay: self-cleavage, relative activity (ratio to wild type); higher = more cleavage; in vitro, sequencing; the parent is a self-cleaving ribozyme

| Variant | self-cleavage |
| --- | --- |
| GGCAGAACUCAACAGAGCGUUGCAGAGUGGCUGUGGCUACACUGCC [G7A C15G G21U A25G G40C] | 0.11 |
| GGUAGAGCUCAACACAGCUUGGCAUAGUGGCUGUUGCUAGACUGCC [C3U G19U A25U G35U] | 0.08 |
| GGUAGAGCUCAACACAGCGAGGCAAAGUGGGAGAGGCUAGACUGCC [C3U U20A C31G U32A U34A] | 0.02 |
| GGCAGAGCUCCACACAGCGUGAUAACGUGGCUGUCGCUAGACUGCC [A11C G22A C23U A26C G35C] | 0.04 |
| GACAGAGAUCAACACAGCGUGGCAAAGUGGUUGUGGAUGGACUGCC [G2A C8A C31U C37A A39G] | 0.28 |
| GCCAGCGCUCAACACAGCGUGACAAAGUGGCUGUGGUUAGACUGCC [G2C A6C G22A C37U] | 0.02 |
| GGCAGAGCUGAUCACAGAGUGGCAAAGUGGCUGUGGCUAGAAUGCC [C10G A12U C18A C42A] | 0.02 |
| GUCAUAGGUCAACACAGCGUGGCAAAGAGGAUGUGGCUAGACUGCC [G2U G5U C8G U28A C31A] | 0.02 |
| GGCGGAGCUCAACACAACGUGGCAGAUUGGCUGUGGCUAGACUGCC [A4G G17A A25G G27U] | 0.11 |
| GGCAGAGCUCAACACAGCGUGGCAAAGUGGCAAUGGCUAGACUGCA [U32A G33A C46A] | 0.1 |
| GGCAGAGCUCAACAAACCGUGGCAAAGUGGCUUUGGCUAGACUGCG [C15A G17C G33U C46G] | 0.05 |
| GGCUGAGCUCAACAGACCGUGGUAAAGUGGCUGUGGCUAGACUGCC [A4U C15G G17C C23U] | 0.17 |
| GGCAGAGCUCAACACAACGUGGCAAAGUUGCUGUGGUUAGACUGCC [G17A G29U C37U] | 0.08 |
| GGUAGACCUCAACACAGCGUGGCAAAGUGGCCGUGGCUAGACUGCC [C3U G7C U32C] | 0.27 |
| GGAAGAGCUCAACACAGCGUGGCCAAGUGGCUGUGGCUAGACUGUC [C3A A24C C45U] | 0.1 |
| GGCAGAGGUCAACACAGAGUGGCAAAGGGGCUGUGGCUAGACUUCC [C8G C18A U28G G44U] | 0.01 |
| GGCAGAGCUCAACAGAGCGUGGUAAAGUGGCUGUGGGUAGGCAGCC [C15G C23U C37G A41G U43A] | 0 |
| GGCAGAGCUCAACACAGCGUGGCUAAGUGGCUGUGGGUAGACUGCA [A24U C37G C46A] | 0.04 |
| GGCAGAAAUCAACACAGCGUUGCAAAGUGGCUGUGGCUUGACUGCC [G7A C8A G21U A39U] | 0.02 |

| Variant | self-cleavage |
| --- | --- |
| GGCAGGGGUCAACACAGCGUGGUAAAGUGGCUGUGGCUAGACUGCC [A6G C8G C23U] | 0.09 |
| GGCAGACCACAACACAGCGUGGCAUAGUGGCUGUGGCUAGACAACC [G7C U9A A25U U43A G44A] | 0.1 |
| GGCAGAGCUCAACAUCGCGUGGCAAAGUGGCUGUGGCUAGACUACC [C15U A16C G44A] | 0.08 |
| GGCAGAGGUCAACAGAGCGUGGCCAAGUGGCUGCGGCUAGGCUGCC [C8G C15G A24C U34C A41G] | 0.05 |
| GGGAGAGCUCAACACAGCGCGGCAAAGUUGCUGUUGCAACACUGCC [C3G U20C G29U G35U U38A G40C] | 0.08 |
| GGCAGAGCUCGACACAGCGUGGUGAAGUGGCUGUGGCUAGAAUGCC [A11G C23U A24G C42A] | 0.01 |
| GGCAGAGCUCACCACACCGUGGCAAAGCGUCUGUGGCUAGACUGCC [A12C G17C U28C G30U] | 0.03 |
| GGCAGAGCUUAAUACAGCGUGGCAAUGUGGCUGGGGCUAGACUGCC [C10U C13U A26U U34G] | 0.04 |
| GGCAGAGUUCAACACAGCGUGGGAAAGUUGCUGUGGCUAGACUGCC [C8U C23G G29U] | 0.1 |
| GGCAGUGAUCAACACAGCGUUGCAAAGUUGCUGUGGCUAGACUACC [A6U C8A G21U G29U G44A] | 0.2 |
| AGCAGAGCUCAACACAGCGUGGCAAGCUGGCUGUUGCUAUACUGCC [G1A A26G G27C G35U G40U] | 0.13 |
| GGUAGAGUUCACCACAGCGUGGCAAAGUGGCUGUAGCUAGACAGCC [C3U C8U A12C G35A U43A] | 0.01 |
| GGCAGAGGUCAACACAGCGUGGCAUAGUGGCUGUGGCUAGAAUGCC [C8G A25U C42A] | 0.03 |
| UGCAGAGCUCAACACAGCGUGGCAAAACGGCUGUGGCUUGACUGAC [G1U G27A U28C A39U C45A] | 0.13 |
| GGCUGAGAUCAAAACAGCCUGGCAAAGUGGCUAUGGAUAGACUGCC [A4U C8A C13A G19C G33A C37A] | 0.03 |
| GGCAGAGCUCAACACAGCGAUGCAAAGUGGCUGUGGCUAUACAGCC [U20A G21U G40U U43A] | 0.02 |
| GGCAGAGCUCAACACAGCGUGGUAAAGUGGGUGUGGCUAGACUGCA [C23U C31G C46A] | 0.19 |
| AUCAGAGCUCAACACAGCGUGGCAAAGUGGCUGUGGAUAUACUGCC [G1A G2U C37A G40U] | 0.05 |
| GGCAGAGCUCAGCACAACGUGGCAAAGCGGCUGAAGCUAGACUGCC [A12G G17A U28C U34A G35A] | 0.04 |

| Variant | self-cleavage |
| --- | --- |
| CGCAGAGCUCAACACAGCGUGGCAAAGUGGCUGUGGCUAGACACCC [G1C U43A G44C] | 0 |
| GGCAGAGCUCAACACAGCAUGCCAAAGUGGCUGUGGCGAGACUGCC [G19A G22C U38G] | 0.02 |
| GGCAGCGCUCAACACAACGUGGCAAAGUGGCUGCGGCUAUACUGCC [A6C G17A U34C G40U] | 0.12 |
| GGCAGAGUUCAACACAGCGCGGCAAAGUGGCUGUGGCUAGAUUGCC [C8U U20C C42U] | 0.1 |
| GGCAGAGCUCAACACAGCGUGGCAACGUGGCUGUGGCUAGACUACA [A26C G44A C46A] | 0.06 |
| GGCGGAGCUCAACACAGCGUGGCAACGUGGCUGUGGCUAGACUGGC [A4G A26C C45G] | 0.31 |
| GGCAGAGCUCAAUACAGCGUGGCAAAGUGGCUGUGUCUCGACUGCC [C13U G36U A39C] | 0.08 |
| AGCAGACCUCAACACAGCGUUGCAAAGUGGCUGUGGUUAGACUGCC [G1A G7C G21U C37U] | 0.2 |
| GGAAGAGCUCAACACAGCGUGGCAAACUGGCUGUGGCUAGACAGCC [C3A G27C U43A] | 0.16 |
| GGCAGAACUCAACACAGCGUGGCAAAGUGGCUGCCGCUAGACUGCC [G7A U34C G35C] | 0.01 |
| GGUAGAGCUAAACAUAGUGUGGCAAAGUGGCUGUGGCUAGACUGCA [C3U C10A C15U C18U C46A] | 0.04 |
| GGCAGAGCUCAACACAGCGUGGCCAAGUGGAUGUGGCUUGACUGCC [A24C C31A A39U] | 0.06 |
| GGCACAGCACAACACAGCGUGGCAAAGUGGCUGUGGCUAGACUACC [G5C U9A G44A] | 0.02 |
| GGCAGGGCUCAACAGAGCGUGGCAUAGUAGUUGUGGCUAUACUGCC [A6G C15G A25U G29A C31U G40U] | 0.01 |
| GGCAAAGCUCAACACAGCGUGACAAAGUGGAUGUGGCUAGACUGCC [G5A G22A C31A] | 0.1 |
| GGCAGGGCUCAACACAGCGUGGCAGAGUGGCUGUGACUCGUCUGCC [A6G A25G G36A A39C A41U] | 0.58 |
| GGCAGAACUCACCACAGCGUGGCAAAGUGGCUUUGGCUAGACUGCC [G7A A12C G33U] | 0.01 |
| GCCAGAGCUCAAAACAGCGUGGCCAAGUGGCUGUGGCUAGACUGCC [G2C C13A A24C] | 0 |
